According to the supplement of paper PMC4604168 (melanoma cell lines):
The other results are listed elsewhere or left out. Many values rest on one well or one pass, so single values are uncertain.

Assays:
Assay in all cases: cell count relative to DMSO control; melanoma cells; higher = more viable cells
Details in all cases: library dose: low library concentration; 72 h
[1] = test system: COLO792
[2] = test system: COLO800
[3] = test system: COLO829
[4] = test system: G361
[5] = test system: IPC-298
[6] = test system: IST-MEL1
[7] = test system: LOXIMVI
[8] = test system: MEL-HO
[9] = test system: LB2518-MEL
[10] = test system: MZ2-MEL
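Note: cell number obtained by counting DAPI-stained nuclei in high-throughput microscope images with image analysis software, screen run in 1,536-well plates.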

Compound: CCCCCCCCCCCC1=C(O)C(=O)C=C(O)C1=O [Embelin] + O=c1cc(-c2cccc3c2Sc2ccccc2S3)oc(N2CCOCC2)c1 [KU55933] (first compound 1.2 µM, partner dose 1 µM)
- cell count [1]: 96.8%
- cell count [2]: 71.4%
- cell count [3]: 105%
- cell count [4]: 89.2%
- cell count [5]: 99%
- cell count [6]: 95.8%
- cell count [7]: 142%
- cell count [8]: 105%

Compound: CCN(CC)CCCCNc1ncc2cc(-c3cc(OC)cc(OC)c3)c(NC(=O)NC(C)(C)C)nc2n1 + COc1cc(N2CCC(N3CCN(C)CC3)CC2)ccc1Nc1ncc(Cl)c(Nc2ccccc2S(=O)(=O)C(C)C)n1 [NVP-TAE684] (first compound 0.1 µM, partner dose 0.08 µM)
- cell count [1]: 108%
- cell count [2]: 84.4%
- cell count [3]: 96.6%
- cell count [4]: 86.3%
- cell count [5]: 105%
- cell count [6]: 102%
- cell count [7]: 127%
- cell count [8]: 89.4%

Compound: CCCCCCCCCCCC1=C(O)C(=O)C=C(O)C1=O [Embelin] + CC(C)CCN1c2nc(Nc3cc(F)c(O)c(F)c3)ncc2N(C)C(=O)C1C [BID1870] (first compound 1.2 µM, partner dose 0.2 µM)
- cell count [1]: 95.2%
- cell count [2]: 95.2%
- cell count [3]: 108%
- cell count [4]: 96.6%
- cell count [5]: 101%
- cell count [6]: 108%
- cell count [9]: 95.8%
- cell count [7]: 125%
- cell count [8]: 99.1%
- cell count [10]: 100%

Compound: COC(=O)c1sccc1S(=O)(=O)Nc1ccc(Nc2ccccc2)cc1OC + Oc1cc(-c2nc(-c3ccccc3)[nH]c2-c2ccncc2)ccc1Cl [L779450] (first compound 1 µM, partner dose 0.2 µM)
- cell count [1]: 116%
- cell count [2]: 61%
- cell count [3]: 124%
- cell count [4]: 86%
- cell count [5]: 78.1%
- cell count [6]: 102%
- cell count [7]: 144%
- cell count [8]: 102%

Compound: c1cc(-c2cnn3cc(-c4ccc(OCCN5CCCCC5)cc4)cnc23)ccn1 [Dorsomorphin] + CCCCCCCCCCCC1=C(O)C(=O)C=C(O)C1=O [Embelin] (first compound 0.4 µM, partner dose 1.2 µM)
- cell count [1]: 89%
- cell count [2]: 130%
- cell count [3]: 112%
- cell count [4]: 94.8%
- cell count [5]: 94.5%
- cell count [6]: 102%
- cell count [7]: 91.7%
- cell count [8]: 93%

Compound: CCN(CC)CCCCNc1ncc2cc(-c3cc(OC)cc(OC)c3)c(NC(=O)NC(C)(C)C)nc2n1 + Oc1nc(-c2ccc(C(F)(F)F)cc2)nc2c1CSCC2 [XAV939] (first compound 0.1 µM, partner dose 2 µM)
- cell count [1]: 78.7%
- cell count [2]: 68%
- cell count [3]: 109%
- cell count [4]: 94.1%
- cell count [5]: 106%
- cell count [6]: 90%
- cell count [9]: 102%
- cell count [7]: 101%
- cell count [8]: 88.9%
- cell count [10]: 97.9%

Compound: COc1ccc2c(c1)CCC1C2CCC2(C)C(NCCCCCCN3C(=O)C=CC3=O)CCC12 (stereo unspecified) + COc1cc2ncnc(Nc3ccc(Oc4ccccc4)cc3)c2cc1OC [SrcI1] (first compound 0.4 µM, partner dose 2 µM)
- cell count [1]: 86.8%
- cell count [2]: 123%
- cell count [3]: 86%
- cell count [4]: 103%
- cell count [5]: 93.9%
- cell count [6]: 87.5%
- cell count [9]: 115%
- cell count [7]: 70.8%
- cell count [8]: 103%
- cell count [10]: 94.1%

Compound: COc1cc2ncnc(Nc3ccc(Oc4ccccc4)cc3)c2cc1OC + CC(C)CCN1c2nc(Nc3cc(F)c(O)c(F)c3)ncc2N(C)C(=O)C1C [BID1870] (first compound 2 µM, partner dose 0.2 µM)
- cell count [1]: 106%
- cell count [2]: 97.5%
- cell count [3]: 121%
- cell count [4]: 121%
- cell count [5]: 105%
- cell count [6]: 105%
- cell count [7]: 96.3%
- cell count [8]: 106%

Compound: Oc1cc(-c2nc(-c3ccccc3)[nH]c2-c2ccncc2)ccc1Cl + CCCCCCCCCCCC1=C(O)C(=O)C=C(O)C1=O [Embelin] (first compound 0.2 µM, partner dose 1.2 µM)
- cell count [1]: 83.1%
- cell count [2]: 138%
- cell count [3]: 114%
- cell count [4]: 111%
- cell count [5]: 81.3%
- cell count [6]: 93.7%
- cell count [9]: 102%
- cell count [7]: 103%
- cell count [8]: 88.2%
- cell count [10]: 70.5%

Compound: Cc1cc([N+](=O)[O-])ccc1NS(=O)(=O)c1cc(Cl)ccc1Cl + Oc1nc(-c2ccc(C(F)(F)F)cc2)nc2c1CSCC2 [XAV939] (first compound 1 µM, partner dose 2 µM)
- cell count [1]: 80.1%
- cell count [2]: 85.7%
- cell count [3]: 98.5%
- cell count [4]: 86.4%
- cell count [5]: 84.1%
- cell count [6]: 85%
- cell count [9]: 102%
- cell count [7]: 70.7%
- cell count [8]: 75.5%
- cell count [10]: 92.8%

Compound: COc1ccc2c(c1)CCC1C2CCC2(C)C(NCCCCCCN3C(=O)C=CC3=O)CCC12 (stereo unspecified) + COc1cc(N2CCC(N3CCN(C)CC3)CC2)ccc1Nc1ncc(Cl)c(Nc2ccccc2S(=O)(=O)C(C)C)n1 [NVP-TAE684] (first compound 0.4 µM, partner dose 0.08 µM)
- cell count [1]: 97.8%
- cell count [2]: 60.4%
- cell count [3]: 90.1%
- cell count [4]: 96%
- cell count [5]: 108%
- cell count [6]: 102%
- cell count [7]: 88.1%
- cell count [8]: 103%

Compound: O=C1NC(=O)/C(=C/c2ccc(-c3ccc(F)cc3O)o2)S1 + Cc1cc([N+](=O)[O-])ccc1NS(=O)(=O)c1cc(Cl)ccc1Cl [FH535] (first compound 1 µM, partner dose 1 µM)
- cell count [1]: 87.5%
- cell count [2]: 85.3%
- cell count [3]: 112%
- cell count [4]: 94.1%
- cell count [5]: 90.1%
- cell count [6]: 88.6%
- cell count [7]: 90.9%
- cell count [8]: 105%

Compound: Oc1cc(-c2nc(-c3ccccc3)[nH]c2-c2ccncc2)ccc1Cl + c1cc(-c2cnn3cc(-c4ccc(OCCN5CCCCC5)cc4)cnc23)ccn1 [Dorsomorphin] (first compound 0.2 µM, partner dose 0.4 µM)
- cell count [1]: 96.3%
- cell count [2]: 81%
- cell count [3]: 101%
- cell count [4]: 86.4%
- cell count [5]: 84.4%
- cell count [6]: 98%
- cell count [9]: 87.2%
- cell count [7]: 131%
- cell count [8]: 84.2%
- cell count [10]: 84.4%

Compound: O=C1NC(=O)/C(=C/c2ccc(-c3ccc(F)cc3O)o2)S1 + CCCCCCCCCCCC1=C(O)C(=O)C=C(O)C1=O [Embelin] (first compound 1 µM, partner dose 1.2 µM)
- cell count [1]: 95.7%
- cell count [2]: 91.4%
- cell count [3]: 110%
- cell count [4]: 102%
- cell count [5]: 103%
- cell count [6]: 109%
- cell count [7]: 98.5%
- cell count [8]: 92.7%

Compound: COc1ccc2c(c1)CCC1C2CCC2(C)C(NCCCCCCN3C(=O)C=CC3=O)CCC12 (stereo unspecified) + Cn1cc(/C=C2\C(=O)Nc3cccnc32)c2ccccc21 [GW441756] (first compound 0.4 µM, partner dose 0.4 µM)
- cell count [1]: 96%
- cell count [2]: 118%
- cell count [3]: 96.7%
- cell count [4]: 95.2%
- cell count [5]: 101%
- cell count [6]: 96.8%
- cell count [9]: 98.8%
- cell count [7]: 99.8%
- cell count [8]: 98.5%
- cell count [10]: 97.8%

Compound: COc1cc2ncnc(Nc3ccc(Oc4ccccc4)cc3)c2cc1OC + Cc1cc([N+](=O)[O-])ccc1NS(=O)(=O)c1cc(Cl)ccc1Cl [FH535] (first compound 2 µM, partner dose 1 µM)
- cell count [1]: 69.8%
- cell count [2]: 102%
- cell count [3]: 97.4%
- cell count [4]: 82.7%
- cell count [5]: 81.5%
- cell count [6]: 86.6%
- cell count [9]: 118%
- cell count [7]: 108%
- cell count [8]: 101%
- cell count [10]: 86.7%

Compound: COc1ccc(-c2ccc3c(N4CCOCC4)nc(N4C[C@@H](C)O[C@@H](C)C4)nc3n2)cc1CO + Cn1cc(/C=C2\C(=O)Nc3cccnc32)c2ccccc21 [GW441756] (first compound 0.02 µM, partner dose 0.4 µM)
- cell count [1]: 97.3%
- cell count [2]: 123%
- cell count [3]: 71.7%
- cell count [4]: 94.6%
- cell count [5]: 93.1%
- cell count [6]: 95.3%
- cell count [7]: 103%
- cell count [8]: 107%

Compound: N#Cc1c(O)c2c(-c3ccc(-c4ccccc4O)cc3)csc2[nH]c1=O + O=S(=O)(c1ccccc1)N(CC(F)(F)F)c1ccc(C(O)(C(F)(F)F)C(F)(F)F)cc1 [T0901317] (first compound 2 µM, partner dose 1.4 µM)
- cell count [1]: 96.1%
- cell count [2]: 66.5%
- cell count [3]: 85.4%
- cell count [4]: 83.9%
- cell count [5]: 90.6%
- cell count [6]: 93.8%
- cell count [7]: 92.5%
- cell count [8]: 98.3%

Compound: O=C(O)C(=O)Nc1sc2c(c1C(=O)O)CCNC2 + COc1cc(N2CCC(N3CCN(C)CC3)CC2)ccc1Nc1ncc(Cl)c(Nc2ccccc2S(=O)(=O)C(C)C)n1 [NVP-TAE684] (first compound 1.66667 µM, partner dose 0.08 µM)
- cell count [1]: 104%
- cell count [2]: 108%
- cell count [3]: 85.5%
- cell count [4]: 101%
- cell count [5]: 93.8%
- cell count [6]: 98.2%
- cell count [7]: 127%
- cell count [8]: 99.6%

Compound: COc1cc(N2CCC(N3CCN(C)CC3)CC2)ccc1Nc1ncc(Cl)c(Nc2ccccc2S(=O)(=O)C(C)C)n1 + CCCCCCCCCCCC1=C(O)C(=O)C=C(O)C1=O [Embelin] (first compound 0.08 µM, partner dose 1.2 µM)
- cell count [1]: 103%
- cell count [2]: 86.9%
- cell count [3]: 100%
- cell count [4]: 94%
- cell count [5]: 107%
- cell count [6]: 110%
- cell count [9]: 110%
- cell count [7]: 125%
- cell count [8]: 78.6%
- cell count [10]: 99.3%

Compound: Oc1cc(-c2nc(-c3ccccc3)[nH]c2-c2ccncc2)ccc1Cl + O=c1cc(-c2cccc3c2Sc2ccccc2S3)oc(N2CCOCC2)c1 [KU55933] (first compound 0.2 µM, partner dose 1 µM)
- cell count [1]: 107%
- cell count [2]: 93.6%
- cell count [3]: 107%
- cell count [4]: 86.3%
- cell count [5]: 90.5%
- cell count [6]: 101%
- cell count [9]: 108%
- cell count [7]: 137%
- cell count [8]: 109%
- cell count [10]: 82.2%

Compound: CCN(CC)CCCCNc1ncc2cc(-c3cc(OC)cc(OC)c3)c(NC(=O)NC(C)(C)C)nc2n1 + O=S(=O)(c1ccccc1)N(CC(F)(F)F)c1ccc(C(O)(C(F)(F)F)C(F)(F)F)cc1 [T0901317] (first compound 0.1 µM, partner dose 1.4 µM)
- cell count [1]: 92%
- cell count [2]: 137%
- cell count [3]: 105%
- cell count [4]: 98.5%
- cell count [5]: 98.9%
- cell count [6]: 102%
- cell count [9]: 116%
- cell count [7]: 91.9%
- cell count [8]: 95.9%
- cell count [10]: 102%

Compound: COC(=O)c1sccc1S(=O)(=O)Nc1ccc(Nc2ccccc2)cc1OC + O=S(=O)(c1ccccc1)N(CC(F)(F)F)c1ccc(C(O)(C(F)(F)F)C(F)(F)F)cc1 [T0901317] (first compound 1 µM, partner dose 1.4 µM)
- cell count [1]: 102%
- cell count [2]: 96.9%
- cell count [3]: 77.5%
- cell count [4]: 99%
- cell count [5]: 92.3%
- cell count [6]: 103%
- cell count [9]: 99.7%
- cell count [7]: 128%
- cell count [8]: 103%
- cell count [10]: 96.8%

Compound: COc1ccc(COc2ccc(Cc3cnc(N)nc3N)cc2OC)cc1 + O=c1cc(-c2cccc3c2Sc2ccccc2S3)oc(N2CCOCC2)c1 [KU55933] (first compound 1 µM, partner dose 1 µM)
- cell count [1]: 115%
- cell count [2]: 130%
- cell count [3]: 65.3%
- cell count [4]: 93.4%
- cell count [5]: 100%
- cell count [6]: 105%
- cell count [9]: 115%
- cell count [7]: 121%
- cell count [8]: 102%
- cell count [10]: 97.3%

Compound: COC(=O)c1sccc1S(=O)(=O)Nc1ccc(Nc2ccccc2)cc1OC + COc1ccc(-c2ccc3c(N4CCOCC4)nc(N4C[C@@H](C)O[C@@H](C)C4)nc3n2)cc1CO [KU0063794] (first compound 1 µM, partner dose 0.02 µM)
- cell count [1]: 97%
- cell count [2]: 142%
- cell count [3]: 98.3%
- cell count [4]: 96.4%
- cell count [5]: 92%
- cell count [6]: 95.4%
- cell count [7]: 126%
- cell count [8]: 104%
